Results published in PubChem BioAssay AID1347417 (National Center for Advancing Translational Sciences (NCATS), 2020).
Several values for one entry are separate records, joined by “and”; a condition that tells them apart may be missing. Equal values may be shown once. Among all 120,000 compounds or so, about 5,300 (4.4%) were called active. Inconclusive means that the source gave no clear call. Such entries were picked first, then a sample of the others. Calls come from the whole dose curve; as a rule, active = well fitted inhibition curve with a large enough effect; inconclusive = small, poorly fitted or top-dose-only effect; inactive = no such curve, though single readings can be large or run the other way. Potencies beside an inconclusive call are fits to weak or partial responses and may not hold up.

experiment: qHTS Primary assay for Inhibitors of Plasmodium falciparum Dd2 growth in vitro; note: nearly all actives have a fitted effect of over 65% in size;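 for activity, negative = inhibition: plate controls were DMSO vehicle for no effect and reference drug for full effect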; details: P. falciparum Dd2 growth, SYBR Green, 72 h; activity, negative = inhibition: at 28.9 µM (top of the series) unless noted; series mostly up to 28.9 µM
Procedure, shortened: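 Readout: SYBR Green fluorescence, 485 nm excitation, 535 nm emission, after ~16 h lysis at 37C. Before that, Dd2-infected red cells (2.5% hematocrit) grew 72 h with compound, 29 uM top final concentration.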
Potency is the fitted concentration of half-maximal effect; tags give direction and shape of the fitted curve.

SMILES	activity, negative = inhibition	Potency	outcome
CC(C)CNC(=O)Cc1ccc(N(Cc2ccccc2)C(=O)c2ccco2)cc1	inactive: -9.32%	–	–
COCCn1ncc(N2CCCC(CC(=O)N(C)Cc3cccnc3)C2)cc1=O (configuration not stated)	inactive: 20.1%	–	–
CCc1cccc(NC(=O)N2CCCC(c3noc(COc4ccccc4)n3)C2)c1 (configuration not stated)	–	inconclusive: 20 µM [inhibitor, partial curve, poor fit]	–
CCn1cc(CN2CCC(N3C(=O)C4(CCCC4)C3c3ccccc3)CC2)cn1 (configuration not stated)	–	active: 1.58 µM	–
COCCCNc1nc2c(S(=O)(=O)c3ccccc3)nnn2c2ccc(Cl)cc12	inactive: 12.6%	–	–
COc1cccc(NC(=O)CN2C(=O)NC3(CCS(=O)(=O)CC3)C2=O)c1	inactive: 34.3%	–	–
COc1cc(OC)c(OC)cc1CN1CCc2nc(Nc3ccc4c(c3)OCCO4)ncc2C1	–	active: 10 µM	–
COc1ccc(Nc2ccc3c(n2)CN(Cc2ccc(C(F)(F)F)cc2)C(=O)CO3)cn1	–	inconclusive: 11.2 µM [inhibitor, single point]	–
COc1ccc(CNC(=O)C(=O)Nc2c3c(nn2-c2ccccc2)CSC3)cc1	–	inconclusive: 17.8 µM [inhibitor, single point]	–
NC(=O)[C@@H]1CN(Cc2ccccn2)C[C@H]1COc1ccccc1	–	inconclusive: 7.94 µM [inhibitor, partial curve, poor fit]	–
Cn1c(Cn2cccn2)nnc1C1CC(NC(=O)c2sccc2N)C1 (configuration not stated)	–	inactive	–
CCOc1ccc2c(n1)CCN(C(=O)c1ccc(OC)nc1OC)C2	–	inconclusive: 7.08 µM [inhibitor, partial curve, poor fit]	–
COc1ncccc1-c1cnc2[nH]cc(CC(=O)N3CCN(C)CC3)c2c1	–	inconclusive: 14.1 µM [inhibitor, single point]	–
CN1CCCC12Cc1ccccc1CN(S(=O)(=O)c1ccccc1)C2 (configuration not stated)	–	inconclusive: 5.62 µM [inhibitor, partial curve, poor fit]	–
O=C(Cn1nc2n(c1=O)CCCC2)Nc1ccc(Br)cc1	inactive: -19.2%	–	–
COc1ccccc1CNC(=O)CCC1N=C2c3ccccc3N=C(SCC(=O)Nc3ccc(F)cc3)N2C1=O (configuration not stated)	–	inconclusive: 4.47 µM [inhibitor, partial curve, poor fit]	–
CC(=O)Nc1ccc(S(=O)(=O)N[C@H]2CO[C@H]3[C@@H]2OC[C@@H]3n2nnnc2-c2ccc3c(c2)OCO3)cc1	–	inconclusive: 1.78 µM [inhibitor, partial curve, poor fit]	–
Cc1noc(C)c1[S+](=O)([O-])N1CCC2(C1)C(=O)N(CCc1ccccc1)c1ccccc12 (configuration not stated)	–	inconclusive: 2 µM [inhibitor, single point] and inconclusive: 8.91 µM [inhibitor, partial curve, poor fit]	–
CN(CC(=O)NCc1ccc(Cl)cc1)S(=O)(=O)c1ccc2[nH]c3c(c2c1)CCCC3	–	inconclusive: 2.82 µM [inhibitor, partial curve]	–
COCCN1C(=O)c2cccn2CC1CNC(=O)c1nccc2ccccc12 (configuration not stated)	–	inconclusive: 17.8 µM [inhibitor, single point]	–
CCOc1cc(=O)n2c(c1C(=O)Nc1ccccc1)CCCCC2	inactive: 21.8%	–	–
Cc1ccc(Cl)cc1Nc1nn2c(=O)c3ccc(C(=O)Nc4ccc(F)cc4)cc3nc2s1	inactive: -5.08%	–	–
Cc1cc(C)n2nc(C(=O)N[C@H](c3ccccn3)C3CC(O)C3)nc2n1 (some centres not stated)	inactive: -9.66%	–	–

SMILES	activity, negative = inhibition	Potency	outcome
O=C(O)C1=NOC2CN(CC3CCOCC3)CC12 (configuration not stated)	inactive: 5.15% [at 44.1 µM]	–	–
CC1CCN(C(=O)Cn2c(=O)n(CCCCCC(=O)NCc3ccccc3Cl)c(=O)c3sccc32)CC1	–	inconclusive: 17.8 µM [inhibitor, single point]	–
COCCN1C(=O)Cc2ccccc2C1C(=O)N(C)Cc1ccco1 (configuration not stated)	inactive: -19.2%	–	–
COc1cccc(CNC(=O)[C@@H]2C[C@@H](O)CN2C2CCN(C(=O)Cc3cccc(OC)c3)CC2)c1	–	inconclusive: 17.8 µM [inhibitor, single point]	–
CN(C)c1cccc(C(=O)NCC2CCN(c3cc(-c4ccc(F)cc4)[nH]n3)CC2)c1	–	inconclusive: 2.51 µM [inhibitor, partial curve]	–
CCn1c(CN2CCOCC2)nc2cc(NC(=O)c3ccccc3[N+](=O)[O-])ccc21	–	inconclusive: 7.94 µM [inhibitor, partial curve, poor fit]	–
COc1cccc(-n2cc(C(=O)Nc3cccc(C(F)(F)F)c3)c3ccccc3c2=O)c1	–	inconclusive: 17.8 µM [inhibitor, single point]	–
COc1ccc(-c2noc(CCCC(=O)N3CCCC3c3nc(C4CCOCC4)no3)n2)cc1OC (configuration not stated)	–	inconclusive: 0.794 µM [inhibitor, partial curve]	–
COc1ccc(C2(C(=O)N3CCCC3c3nc(C4CCOCC4)no3)CC2)cc1 (configuration not stated)	inactive: 28.6%	–	–
CN1C(=O)CO[C@H](c2ccc(NC(=O)CCc3ccccc3)cc2)[C@H]1CO	inactive: -18.1% [at 44.1 µM]	–	–
O=C1Nc2ccccc2CC12CCCN(Cc1cccnc1)C2 (configuration not stated)	–	inconclusive: 10 µM [inhibitor, single point]	–
CCNC(=O)N1CC[C@@H](CC(=O)O)[C@@H](CC2=NCCc3ccc(C(C)(C)C)cc32)C1	inactive: -10.3% [at 44.1 µM]	–	–
Cc1c(C(=O)N(C)C)sc2c1c(=O)n(-c1ccc(Cl)c(Cl)c1)c(=O)n2CC(=O)C(C)(C)C	inactive: 51%	–	–
O=c1n(-c2ccc(C(F)(F)F)cc2)nc2n1CCN(Cc1ccc(F)cc1)C2	–	inconclusive: 7.08 µM [inhibitor, partial curve, poor fit]	–
CCOc1ccccc1C(=O)N1CCc2nn(Cc3ccccc3)c(=O)n2CC1	inactive: -5.05%	–	–
COc1ccc(OC)c(NC(=O)CSC2=Nc3ccccc3C3=NC(CCC(=O)NCc4ccccc4)C(=O)N23)c1 (configuration not stated)	–	active: 12.6 µM	–
COc1cccc(CNC(=O)[C@@]23CCCC[C@H]2N(CCc2ccccc2)C(=O)CC3)c1OC	–	inconclusive: 10 µM [inhibitor, single point]	–
O=C(c1cn2c(n1)CN(C(=O)c1ccccc1F)CC2)N1CCOCC1	inactive: 19.8%	–	–
CN(C)CCNC(=O)c1ccc(Cn2c(SCc3ccc(F)cc3)nc3cccnc32)cc1	–	inconclusive: 11.2 µM [inhibitor, single point]	–
CCCN1CCN(C(=O)c2cc(CN(C)Cc3ccccc3)on2)CC1	inactive: -14.1%	–	–
COc1ccc(NC(=O)N2CCCC(Cn3cnc4cccnc43)C2)cc1Cl (configuration not stated)	–	inconclusive: 1 µM [inhibitor, full curve]	–
O=C(c1cccs1)c1cn(CCOc2ccc(Cl)cc2)c2ccccc12	–	inconclusive: 2 µM [inhibitor, full curve, poor fit]	–
O=C(CC1CCCC1)NCCC1CCN(C(=O)Nc2cc(F)ccc2F)CC1	–	–	inactive

SMILES	activity, negative = inhibition	Potency	outcome
Cc1ccc2sc(N(Cc3cccnc3)C(=O)Cc3ccccc3)nc2c1C	–	inconclusive: 17.8 µM [inhibitor, single point]	–
COc1ccc(S(=O)(=O)c2c(Nc3c(C)cccc3C)sc(C(=O)c3ccc(F)cc3)c2N)cc1	–	inconclusive: 10 µM [inhibitor, single point]	–
Cc1c(CC(=O)NC2CCOC2=O)c2c(n1Cc1ccccc1F)CCCC2=O (configuration not stated)	inactive: -7.16%	–	–
CCc1cccc(C)c1Nc1c(-c2ccc(SC)cc2)nc2sccn12	–	inconclusive: 17.8 µM [inhibitor, single point]	–
Cc1cccc(NC(=O)Cn2c(=O)n(Cc3ccccc3)c(=O)c3sc4ccccc4c32)c1	–	inconclusive: 3.98 µM [inhibitor, single point]	–
COCC(C)Nc1nccc(C2(c3ccccc3Cl)CCNCC2)n1 (configuration not stated)	–	inconclusive: 11.2 µM [inhibitor, partial curve, poor fit]	–
O=C(Cc1cccc(Cl)c1)NCc1ccnc2[nH]ccc12	inactive: -12.4% [at 44.1 µM]	–	–
COc1ccccc1CNC1(Cc2cc(C(C)(C)C)on2)COC1	inactive: -9.2% [at 44.1 µM]	–	–
COc1ccccc1-c1nc2cnccn2c1NCCC(=O)N1CCc2ccccc21	inactive: -16.5%	–	–
Cc1ccc(C)c(NC(=O)CN(C)S(=O)(=O)c2cccc3cccnc23)c1	–	inconclusive: 3.98 µM [inhibitor, partial curve, poor fit]	–
C[C@@H]1CN(C(=O)c2cccc(N3CCNC3=O)c2)C[C@@]1(O)C1CC1	–	inconclusive: 17.8 µM [inhibitor, single point]	–
CC(=O)Nc1ccc(S(=O)(=O)NC[C@H]2C[C@@H]3CCN2C[C@@H]3c2cc(C3CCCC3)nn2C)cc1	–	inconclusive: 2.82 µM [inhibitor, single point]	–
Cc1noc(C)c1CC(=O)N1CCCn2ccnc2C1c1ccccc1 (configuration not stated)	inactive: -10%	–	–
CCOc1ccccc1NC(=O)C1CCC(CNS(=O)(=O)c2ccc3c(c2)CCCC(=O)N3)CC1 (configuration not stated)	inactive: 23.2%	–	–
Cc1ccc(NC(=O)Nc2cccc(-c3ccc(N4CCOCC4)nn3)c2)cc1	–	inconclusive: 14.1 µM [inhibitor, partial curve, poor fit]	–
O=C1NCCCCCCN(S(=O)(=O)c2cccc(F)c2)[C@H]2CCC[C@@H]12	inactive: -1.09%	–	–
Cn1cccc1CN1CCC2(CC1)CC(=O)N(c1ccccc1)c1ccccc1O2	–	inconclusive: 1.58 µM [inhibitor, partial curve, poor fit]	–
COCCn1cnc2ccc(-c3ccc(F)cc3OC)nc2c1=O	–	–	inactive [at 44.1 µM]
CN(C)CCNC(=O)c1ccc(-n2c(-c3ccccc3)cc3c2CCCCC3)cc1	–	active: 0.355 µM	–
CC(C)Oc1ccc(CN2CCc3nc(Nc4ccc5c(c4)OCCO5)ncc3C2)cc1	–	inconclusive: 10 µM [inhibitor, partial curve]	–
CCOc1cccc(CN2CCCC(COc3ccccc3C(=O)N3CCCC3)C2)c1 (configuration not stated)	–	inconclusive: 1.12 µM [inhibitor, partial curve, poor fit]	–
